# Measurements taken from a collection of fitness landscapes (doi:10.1126/science.1257360).
# The other results are listed elsewhere or left out.
# B1: PhoQ; a variant is named by its letters at X, in order, P23837 (parent)
# chain: MKKLLRLFFPLSLRVRFLLATAAVVLVLSLAYGMVALIGYSVSFDKTTFRLLRGESNLFYTLAKWENNKLHVELPENIDKQSPTMTLIYDENGQLLWAQRDVPWLMKMIQPDWLKSNGFHEIEADVNDTSLLLSGDHSIQQQLQEVREDDDDAEMTHSVAVNVYPATSRMPKLTIVVVDTIPVELKSSYMVWSWFIYVLSANLLLVIPLLWVAAWWSLRPIEALAKEVRELEEHNRELLNPATTRELTSLVRNLNRLLKSERERYDKYRTTLTDLTHSLKTPLXXLQXXLRSLRSEKMSVSDAEPVMLEQISRISQQIGYYLHRASMRGGTLLSRELHPVAPLLDNLTSALNKVYQRKGVNISLDISPEISFVGEQNDFVEVMGNVLDNACKYCLEFVEISARQTDEHLYIVVEDDGPGIPLSKREVIFDRGQRVDTLRPGQGVGLAVAREITEQYEGKIVAGESMLGGARMEVIFGRQHSAPKDE
# Variants of: B1
# Assay: enrichment ratio after two sorts for PhoP signalling (ratio (wild type AVST 3.29)); higher = more functional
# Details: with PhoP (E. coli)
row,Variant,enrichment ratio
1,IHPW,≤ 0.25
2,WCSM,≤ 0.25
3,WHPY,≤ 0.25
4,QFYH,≤ 0.25
5,YPIK,≤ 0.25
6,REAY,5.49
7,MKMF,≤ 0.25
8,RKTA,≤ 0.25
9,SIWP,≤ 0.25
10,HICT,≤ 0.25
11,IMHC,≤ 0.25
12,TFDV,≤ 0.25
13,PCWL,≤ 0.25
14,TEFT,5.71
15,FGYP,≤ 0.25
16,ISIQ,≤ 0.25
17,KKQT,≤ 0.25
18,ITDA,≤ 0.25
19,KFKC,≤ 0.25
20,FSMR,≤ 0.25
21,IDEK,≤ 0.25
22,SFCI,0.567
23,PSEL,≤ 0.25
24,VYEP,≤ 0.25

row,Variant,enrichment ratio
1,KMYY,≤ 0.25
2,YALY,3.59
3,QPVQ,≤ 0.25
4,ISGR,≤ 0.25
5,ACRG,≤ 0.25
6,ESTY,≤ 0.25
7,TVFH,≤ 0.25
8,IWDV,≤ 0.25
9,HKAA,≤ 0.25
10,VVME,≤ 0.25
11,SSFD,≤ 0.25
12,AHRD,≤ 0.25
13,CPTF,≤ 0.25
14,PTEL,≤ 0.25
15,NHFA,≤ 0.25
16,FVKM,≤ 0.25
17,VASM,4.41
18,CLLH,≤ 0.25
19,FCTS,≤ 0.25
20,HMFF,0.262
21,DKFR,≤ 0.25
22,TAMK,≤ 0.25
23,IAHC,≤ 0.25
24,DTDA,≤ 0.25

row,Variant,enrichment ratio
1,GMHW,≤ 0.25
2,LTVQ,≤ 0.25
3,LNAT,≤ 0.25
4,FPLK,≤ 0.25
5,SWYF,≤ 0.25
6,TYKR,≤ 0.25
7,RDSQ,≤ 0.25
8,RIPT,≤ 0.25
9,NCTF,≤ 0.25
10,TRTG,≤ 0.25
11,ILKF,≤ 0.25
12,PHVA,≤ 0.25
13,MEEH,≤ 0.25
14,EEHS,≤ 0.25
15,DMLN,≤ 0.25
16,INYW,≤ 0.25
17,HISF,≤ 0.25
18,LHQN,≤ 0.25
19,YWWS,≤ 0.25
20,FTLG,6.21
21,RMQA,≤ 0.25
22,LPLW,≤ 0.25
23,PMYT,≤ 0.25
24,GWRT,≤ 0.25

row,Variant,enrichment ratio
1,FRYE,≤ 0.25
2,DELK,≤ 0.25
3,CPCL,≤ 0.25
4,HCFI,≤ 0.25
5,DTPF,≤ 0.25
6,NYPH,≤ 0.25
7,SVIF,0.504
8,YHFK,≤ 0.25
9,LRVG,≤ 0.25
10,KIYR,≤ 0.25
11,KQAY,≤ 0.25
12,RPEV,≤ 0.25
13,IGHS,≤ 0.25
14,KLSR,≤ 0.25
15,EGYF,≤ 0.25
16,VNNK,≤ 0.25
17,AQAR,≤ 0.25
18,DFEY,≤ 0.25
19,MNPK,≤ 0.25
20,MYEC,≤ 0.25
21,KTHL,≤ 0.25
22,VNSM,5.83
23,WDTD,≤ 0.25
24,MTTD,≤ 0.25

row,Variant,enrichment ratio
1,WDTS,0.51
2,TSLT,13.3
3,YQKE,≤ 0.25
4,PPTY,≤ 0.25
5,FNGI,≤ 0.25
6,GSTN,≤ 0.25
7,TLDC,≤ 0.25
8,ISLI,11.2
9,LNYY,0.737
10,NYQH,≤ 0.25
11,KYCM,≤ 0.25
12,NYQA,≤ 0.25
13,KHVH,≤ 0.25
14,SRIW,≤ 0.25
15,RCAD,≤ 0.25
16,WPPD,≤ 0.25
17,LQHS,≤ 0.25
18,NGFT,≤ 0.25
19,DIPW,≤ 0.25
20,ELVV,≤ 0.25
21,KRGV,≤ 0.25
22,TYQG,1.66
23,YLQT,≤ 0.25
24,QLWC,≤ 0.25

row,Variant,enrichment ratio
1,DIQD,≤ 0.25
2,QGVG,≤ 0.25
3,SDEC,≤ 0.25
4,NGPA,≤ 0.25
5,QRVF,≤ 0.25
6,FYLY,≤ 0.25
7,RTAF,≤ 0.25
8,KTYD,≤ 0.25
9,IKAA,≤ 0.25
10,IMTN,≤ 0.25
11,VHMF,≤ 0.25
12,GRHM,≤ 0.25
13,WCLP,≤ 0.25
14,QVCC,≤ 0.25
15,KIDH,≤ 0.25
16,HTYI,≤ 0.25
17,IRFT,≤ 0.25
18,RIWV,≤ 0.25
19,AQPL,≤ 0.25
20,FRQW,≤ 0.25
21,MTQC,≤ 0.25
22,TYCC,5.44
23,SFQC,≤ 0.25
24,QVRA,≤ 0.25

row,Variant,enrichment ratio
1,SVDN,≤ 0.25
2,ANMM,32.7
3,GGKT,≤ 0.25
4,RLTY,≤ 0.25
5,TGNS,2.8
6,IRNQ,≤ 0.25
7,AAVA,≤ 0.25
8,PSTL,≤ 0.25
9,NVHY,≤ 0.25
10,VQFY,≤ 0.25
11,ARYV,≤ 0.25
12,TFWQ,≤ 0.25
13,CLCR,≤ 0.25
14,GNTE,≤ 0.25
15,HHLN,≤ 0.25
16,HAIL,≤ 0.25
17,VWHT,≤ 0.25
18,HWCI,≤ 0.25
19,VSIP,≤ 0.25
20,WHHQ,≤ 0.25
21,ICLT,4.11
22,KCIN,≤ 0.25
23,IIFW,≤ 0.25
24,WSTD,≤ 0.25

row,Variant,enrichment ratio
1,SAMR,0.536
2,TLFP,≤ 0.25
3,DTRH,≤ 0.25
4,GLPD,≤ 0.25
5,RDEI,≤ 0.25
6,QMCN,≤ 0.25
7,LHMS,≤ 0.25
8,FDVG,≤ 0.25
9,RPFW,≤ 0.25
10,ISHV,≤ 0.25
11,AWFW,≤ 0.25
12,WSFW,≤ 0.25
13,EFVG,≤ 0.25
14,TYFF,0.393
15,NTFM,≤ 0.25
16,GTFG,≤ 0.25
17,MFWE,≤ 0.25
18,NILE,≤ 0.25
19,NFVI,≤ 0.25
20,FLWG,≤ 0.25
21,MSRG,≤ 0.25
22,QAYN,6.71
23,HICR,≤ 0.25
24,TRMA,≤ 0.25

row,Variant,enrichment ratio
1,RNQQ,≤ 0.25
2,PHRE,≤ 0.25
3,ASVM,12.1
4,TNKL,≤ 0.25
5,VRMN,≤ 0.25
6,ERTV,≤ 0.25
7,IRHH,≤ 0.25
8,AWFC,≤ 0.25
9,YYRF,≤ 0.25
10,AKRQ,≤ 0.25
11,IPVH,≤ 0.25
12,ITEC,≤ 0.25
13,PHVW,≤ 0.25
14,YQSS,≤ 0.25
15,IPNH,≤ 0.25
16,YWGG,≤ 0.25
17,AIQN,≤ 0.25
18,KDYI,≤ 0.25
19,ERST,≤ 0.25
20,DSQN,≤ 0.25
21,GYAD,3.06
22,RCRE,≤ 0.25
23,FFLY,0.427
24,SEMG,21.5

row,Variant,enrichment ratio
1,LTML,3.18
2,DIDL,≤ 0.25
3,FWMD,≤ 0.25
4,RAFM,≤ 0.25
5,PNRS,≤ 0.25
6,HTLM,10.1
7,SIDQ,≤ 0.25
8,FNFV,≤ 0.25
9,IYFS,≤ 0.25
10,KVWP,≤ 0.25
11,CVPP,≤ 0.25
12,SHWI,≤ 0.25
13,GETT,16.2
14,YYGD,≤ 0.25
15,NHCF,≤ 0.25
16,PTND,≤ 0.25
17,KVDL,≤ 0.25
18,QLDM,≤ 0.25
19,KMRF,≤ 0.25
20,VCPF,≤ 0.25
21,VRGC,≤ 0.25
22,GVRY,≤ 0.25
23,FKGS,≤ 0.25
24,VCMG,10.3

row,Variant,enrichment ratio
1,DKLY,≤ 0.25
2,KMMF,≤ 0.25
3,AYTE,≤ 0.25
4,FTPL,≤ 0.25
5,VYGM,≤ 0.25
6,IDLN,≤ 0.25
7,HKDS,≤ 0.25
8,FMVD,≤ 0.25
9,YDQC,≤ 0.25
10,QSQN,≤ 0.25
11,VTRF,≤ 0.25
12,ICDV,≤ 0.25
13,VAKG,≤ 0.25
14,LTFE,0.578
15,ITAN,≤ 0.25
16,WKPN,≤ 0.25
17,WNHK,≤ 0.25
18,LMKD,≤ 0.25
19,FNET,≤ 0.25
20,YYCI,≤ 0.25
21,YCCL,2.44
22,ERSP,≤ 0.25
23,LERI,≤ 0.25
24,NWNS,≤ 0.25

row,Variant,enrichment ratio
1,EFLK,≤ 0.25
2,SVHS,≤ 0.25
3,LIRK,≤ 0.25
4,KEKS,≤ 0.25
5,ERMH,≤ 0.25
6,ALAQ,5.48
7,KRMQ,≤ 0.25
8,HLTI,≤ 0.25
9,KQVN,≤ 0.25
10,MEWP,≤ 0.25
11,PPFQ,≤ 0.25
12,YDHM,≤ 0.25
13,TIIQ,≤ 0.25
14,MLVL,2.67
15,NMFP,≤ 0.25
16,YIFK,≤ 0.25
17,NIFQ,≤ 0.25
18,HDNR,≤ 0.25
19,DQAV,≤ 0.25
20,AGVI,3.57
21,KLKP,≤ 0.25
22,PERG,≤ 0.25
23,WPQV,≤ 0.25
24,KNGH,≤ 0.25

row,Variant,enrichment ratio
1,FPCM,≤ 0.25
2,HKAR,≤ 0.25
3,THID,≤ 0.25
4,DFEK,≤ 0.25
5,IFMA,0.252
6,YTDK,≤ 0.25
7,SANC,≤ 0.25
8,MCPV,≤ 0.25
9,PEKR,≤ 0.25
10,MREL,≤ 0.25
11,QISN,1.91
12,LQFT,≤ 0.25
13,TQGA,2.57
14,ATLT,10.2
15,SQML,4.5
16,PKCK,≤ 0.25
17,SLKA,≤ 0.25
18,SCEY,≤ 0.25
